The values that follow come from PubChem BioAssay AID1347073 (National Center for Advancing Translational Sciences (NCATS), 2019).

About 200 (0.44%) of roughly 45,000 compounds were called active. About 7% were inconclusive and are not listed. Calls follow the shape of the dose curve; as a rule, active = well fitted activation curve with a large enough effect; inconclusive = small, poorly fitted or top-dose-only effect; inactive = no such curve, though single readings can be large or run the other way. Some of the results follow.

The experiment is described as follows: qHTS of TDP-43 Inhibitors: NCGC Sytravon Library Screen. Also: 0% is about no effect; nearly all actives have a fitted effect of over 55% in size. The conditions noted are these: yeast TDP-43 toxicity rescue, BacTiter-Glo growth, 24 h; series mostly up to 46.1 µM; growth rescue (activation): at the top concentration. The gist of the method: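 TDP-43-expressing yeast, pregrown in raffinose, seeded at OD600 0.02 in galactose medium with compound for 24 hr at 30 deg C. Growth read by BacTiter-Glo luminescence, so rescue of toxicity appears as activation.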
On the technique in general: Quantitative high-throughput screening tests each substance at several concentrations.
As to `Cc1ccccc1N1CC(C(=O)Nc2ccc3c(c2)OCO3)CC1=O` (centres undefined), the “growth rescue (activation)” value was inactive: 2.04%. As to `CC(=O)NCCc1nc2cc(NC(=O)COc3cccc(C)c3)ccc2n1C`, the “growth rescue (activation)” value was inactive: -10.3%. Turning to `N#CC(C#N)=C1C=CC=CN1/C(=C\c1ccco1)C(=O)c1ccccc1`, the “growth rescue (activation)” value was inactive: 8.17%. Under `COc1cc(C2C(C#N)=C(N)N(N(C)C)C3=C2C(=O)CCC3)ccc1O` (centres undefined) stands inactive: -16.2%; under `Cc1ccccc1-n1c(/C=C/c2c(C)n(C)c3ccccc23)nc2ccccc2c1=O`, inactive: 10.6%; under `Cc1nc(C)n(CC(=O)N2CCCC(C(=O)c3ccc(Cl)cc3C)C2)n1` (centres undefined), inactive: -11.7%. As to `O=C(Cn1cncn1)N/N=C/c1cccc2ccccc12`, the “growth rescue (activation)” value was inactive: 5.88%. Take `Cc1ccc(-c2nnn3c2nc(Cl)c2ccccc23)cc1`: the “growth rescue (activation)” value is inactive: 6.37%. As to `O=C(COc1cccc(Br)c1)N/N=C1\CCCc2ccccc21`, the “growth rescue (activation)” value is inactive: 25.6%.

With `Cc1c(C(=O)N2CCN(Cc3ccc4c(c3)OCO4)CC2)cccc1[N+](=O)[O-]`, the “growth rescue (activation)” value is inactive: 14.3%. For the molecule `COc1ccc(S(=O)(=O)N2CCN(C)CC2)cc1NC(=O)c1ccccc1C`, the “growth rescue (activation)” value is inactive: 2.96%. Under `O=C(NCc1ccccc1Cl)C1CCN(S(=O)(=O)N2CCOCC2)CC1` stands inactive: 3.19%; under `O=C(OCC(=O)N1CCC(Cc2ccccc2)CC1)c1ccc[nH]c1=O`, inactive: 22%; under `O=C(O)Cn1cnc2scc(-c3ccccc3)c2c1=O`, inactive: 0.214%. `COc1ccc(CCNS(=O)(=O)c2ccc3[nH]c(=O)[nH]c3c2)cc1`: the “growth rescue (activation)” value was inactive: 0.53%. `C=CCNC(=O)c1ccc2nc(Cc3ccc(OC)cc3)oc2c1`: the “growth rescue (activation)” value was inactive: 16.4%. In the case of `CC(=O)N/C(=C\c1ccccc1)C(=O)OCC(=O)c1c(N)n(C)c(=O)n(C)c1=O`, the “growth rescue (activation)” value was inactive: -3.6%. Consider `COc1cccc2cc(C(=O)NCc3ccc(Cl)cc3)c(=O)oc12`, for which the “growth rescue (activation)” value was inactive: -10.3%. For `CN(NS(=O)(=O)c1ccc(F)cc1)c1ncc(C(F)(F)F)cc1Cl`, the “growth rescue (activation)” value is inactive: -0.623%. Regarding `CCN1CCN(C(c2ccccc2)c2sc3nc(-c4ccco4)nn3c2O)CC1` (centres undefined), the “growth rescue (activation)” value was inactive: -4.94%. With `O=C(CCc1nnc(-c2ccc3c(c2)OCO3)o1)NC(c1cccnc1)C(F)(F)F` (centres undefined), the “growth rescue (activation)” value is inactive: 8.7%. For `OC[C@H]1O[C@@H](c2nc(-c3ccccc3Br)no2)[C@H](O)[C@@H](O)[C@H]1O`, the “growth rescue (activation)” value is inactive: -5.18%. Consider `COc1ccccc1C(=O)n1nc(-c2ccco2)nc1NCc1ccc(Cl)cc1`, for which the “growth rescue (activation)” value is inactive: 9.87%. Under `COc1ccc(Cl)cc1-c1nc(SCC(N)=O)n[nH]1` stands inactive: 3.4%; under `COc1cc(CN2CCN(C(=O)CC(C)C)CC2)c([N+](=O)[O-])cc1OC`, inactive: -2.47%; under `COc1ccc(-n2cc3ccc([N+](=O)[O-])cc3n2)cc1`, inactive: -1.4%. Under `CN(c1ccccc1)S(=O)(=O)c1cccc(NC(=O)CN2CCCc3ccccc32)c1` stands inactive: 4.61%. As to `CNC(=S)Nc1sc2c(c1C(=O)OC)CCC2`, the “growth rescue (activation)” value is inactive: 26.1%. For `CC(=O)c1cccc(NC(=O)N2CCCC2C(=O)Nc2ccc3c(c2)OCCO3)c1` (centres undefined) the value was inactive: -8.17%.
